Measurements published in PMC8789800.

Target: carboxyfluoresceine (CF) labeled ORF45(16-40) peptide (Human herpesvirus 8 type P (KSHV))
Experiment: fluorescence polarisation

## nonphosphorylated ERK2 (from UniProt P28482 1-360) (enzyme)
  Kd: 19.9 µM
